This is one part of the list.

The target in the assay is T1, MBP-FoxP1dN (Mus musculus, UniProt P58462 326-579).
T1 sequence: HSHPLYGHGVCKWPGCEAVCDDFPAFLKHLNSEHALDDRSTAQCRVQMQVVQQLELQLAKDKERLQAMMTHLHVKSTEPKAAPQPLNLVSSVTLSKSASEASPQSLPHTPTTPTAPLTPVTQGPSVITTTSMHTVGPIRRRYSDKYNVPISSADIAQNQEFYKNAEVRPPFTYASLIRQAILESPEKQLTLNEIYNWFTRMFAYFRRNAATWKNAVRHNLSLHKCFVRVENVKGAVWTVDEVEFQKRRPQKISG
Nature of the assay: PD-seq (MBP pull-down with sequencing); 20 mM Tris-HCl pH 7.5, 100 mM NaCl, 1.5 mM MgCl2, 0.4 uM protein, 0.1 uM dsDNA library, 30 min, room temperature, amylose pull-down; high values mean tight binding. The settings on record: protein: recombinant; tags: His6-MBP; chain copies: 2; dsDNA, one strand shown. The gist of the method: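 Binding is given as reads-per-million enrichment, pull-down over input, with replicates pooled. The bait was an N-terminus-lacking mouse FoxP3 or FoxP1 fragment with a His6-MBP tag, expressed in E. coli and used at 0.4 µM with 0.1 µM Klenow-filled degenerate double-stranded DNA library for 30 min at room temperature in Tris pH 7.5 buffer with NaCl and MgCl2. Amylose resin pull-down with three washes was followed by proteinase K release, PCR barcoding and Illumina sequencing.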
On to “GATGATTGTTCTCCCAGCTGATGAATTCGGACTGTCGAGTAAACAAATTTTCCTAATCTTTCTGTTCAAGCGCCATCTAC”, for which the binding signal is 0.743 RPM ratio (pull-down/input).
To “GATGATTGTTCTCCCAGCTGATGAATTGAGATCCTCGAGTAAACAAATTTTCCTAATCTTTCTGTTCAAGCGCCATCTAC” belongs 0.799 RPM ratio (pull-down/input).
With “GATGATTGTTCTCCCAGCTGATGAATTGAAACGGTCGAGTAAACAAATTTTCCTAATCTTTCTGTTCAAGCGCCATCTAC”, the binding signal is 0.831 RPM ratio (pull-down/input).
To “GATGATTGTTCTCCCAGCTGATGAATTACGCTTGTCGAGTAAACAAATTTTCCTAATCTTTCTGTTCAAGCGCCATCTAC” belongs 1.01 RPM ratio (pull-down/input).
To “GATGATTGTTCTCCCAGCTGATGAATTGCTCAGATCGAGTAAACAAATTTTCCTAATCTTTCTGTTCAAGCGCCATCTAC” belongs 0.962 RPM ratio (pull-down/input); to “GATGATTGTTCTCCCAGCTGATGAATTTAATCGCTCGAGTAAACAAATTTTCCTAATCTTTCTGTTCAAGCGCCATCTAC”, 0.921 RPM ratio (pull-down/input); to “GATGATTGTTCTCCCAGCTGATGAATTATTCTCATCGAGTAAACAAATTTTCCTAATCTTTCTGTTCAAGCGCCATCTAC”, 1.1 RPM ratio (pull-down/input).
For “GATGATTGTTCTCCCAGCTGATGAATTGTTAATGTCGAGTAAACAAATTTTCCTAATCTTTCTGTTCAAGCGCCATCTAC” the value was 1.5 RPM ratio (pull-down/input).
As to “GATGATTGTTCTCCCAGCTGATGAATTGCACGACTCGAGTAAACAAATTTTCCTAATCTTTCTGTTCAAGCGCCATCTAC”, the binding signal is 1.06 RPM ratio (pull-down/input).
For the sequence “GATGATTGTTCTCCCAGCTGATGAATTTTGACGGTCGAGTAAACAAATTTTCCTAATCTTTCTGTTCAAGCGCCATCTAC”, the binding signal was 0.854 RPM ratio (pull-down/input).
As for “GATGATTGTTCTCCCAGCTGATGAATTAAAAAATTCGAGTAAACAAATTTTCCTAATCTTTCTGTTCAAGCGCCATCTAC”, the binding signal is 0.963 RPM ratio (pull-down/input).
To “GATGATTGTTCTCCCAGCTGATGAATTGGGGTTTTCGAGTAAACAAATTTTCCTAATCTTTCTGTTCAAGCGCCATCTAC” belongs 0.965 RPM ratio (pull-down/input); to “GATGATTGTTCTCCCAGCTGATGAATTATGTCCATCGAGTAAACAAATTTTCCTAATCTTTCTGTTCAAGCGCCATCTAC”, 1.1 RPM ratio (pull-down/input).
Take “GATGATTGTTCTCCCAGCTGATGAATTTAGCAAATCGAGTAAACAAATTTTCCTAATCTTTCTGTTCAAGCGCCATCTAC”: the binding signal is 1.21 RPM ratio (pull-down/input).
For “GATGATTGTTCTCCCAGCTGATGAATTCGTAGGGTCGAGTAAACAAATTTTCCTAATCTTTCTGTTCAAGCGCCATCTAC” the value was 0.802 RPM ratio (pull-down/input).
For “GATGATTGTTCTCCCAGCTGATGAATTACTTGGGTCGAGTAAACAAATTTTCCTAATCTTTCTGTTCAAGCGCCATCTAC” the value was 0.844 RPM ratio (pull-down/input); for “GATGATTGTTCTCCCAGCTGATGAATTTCTCGTGTCGAGTAAACAAATTTTCCTAATCTTTCTGTTCAAGCGCCATCTAC”, 0.851 RPM ratio (pull-down/input).
As to “GATGATTGTTCTCCCAGCTGATGAATTGCCATAATCGAGTAAACAAATTTTCCTAATCTTTCTGTTCAAGCGCCATCTAC”, the binding signal was 1.28 RPM ratio (pull-down/input).
For “GATGATTGTTCTCCCAGCTGATGAATTTAGATCGTCGAGTAAACAAATTTTCCTAATCTTTCTGTTCAAGCGCCATCTAC” the value was 0.981 RPM ratio (pull-down/input); for “GATGATTGTTCTCCCAGCTGATGAATTGGACTTTTCGAGTAAACAAATTTTCCTAATCTTTCTGTTCAAGCGCCATCTAC”, 0.913 RPM ratio (pull-down/input); for “GATGATTGTTCTCCCAGCTGATGAATTATCTCTTTCGAGTAAACAAATTTTCCTAATCTTTCTGTTCAAGCGCCATCTAC”, 1.08 RPM ratio (pull-down/input).
For “GATGATTGTTCTCCCAGCTGATGAATTAATACTTTCGAGTAAACAAATTTTCCTAATCTTTCTGTTCAAGCGCCATCTAC” the value was 1 RPM ratio (pull-down/input); for “GATGATTGTTCTCCCAGCTGATGAATTGCTTCTTTCGAGTAAACAAATTTTCCTAATCTTTCTGTTCAAGCGCCATCTAC”, 1.09 RPM ratio (pull-down/input).
For “GATGATTGTTCTCCCAGCTGATGAATTTGCAGTATCGAGTAAACAAATTTTCCTAATCTTTCTGTTCAAGCGCCATCTAC” the value was 1.06 RPM ratio (pull-down/input); for “GATGATTGTTCTCCCAGCTGATGAATTCAGGCTCTCGAGTAAACAAATTTTCCTAATCTTTCTGTTCAAGCGCCATCTAC”, 0.846 RPM ratio (pull-down/input); for “GATGATTGTTCTCCCAGCTGATGAATTGAAGTGGTCGAGTAAACAAATTTTCCTAATCTTTCTGTTCAAGCGCCATCTAC”, 0.851 RPM ratio (pull-down/input).
Turning to “GATGATTGTTCTCCCAGCTGATGAATTCAAGACATCGAGTAAACAAATTTTCCTAATCTTTCTGTTCAAGCGCCATCTAC”, the binding signal is 0.969 RPM ratio (pull-down/input).
To “GATGATTGTTCTCCCAGCTGATGAATTCGTGCAATCGAGTAAACAAATTTTCCTAATCTTTCTGTTCAAGCGCCATCTAC” belongs 1.17 RPM ratio (pull-down/input); to “GATGATTGTTCTCCCAGCTGATGAATTACAATGTTCGAGTAAACAAATTTTCCTAATCTTTCTGTTCAAGCGCCATCTAC”, 1.4 RPM ratio (pull-down/input); to “GATGATTGTTCTCCCAGCTGATGAATTCCCATCTTCGAGTAAACAAATTTTCCTAATCTTTCTGTTCAAGCGCCATCTAC”, 0.81 RPM ratio (pull-down/input).
To “GATGATTGTTCTCCCAGCTGATGAATTTTTTTGCTCGAGTAAACAAATTTTCCTAATCTTTCTGTTCAAGCGCCATCTAC” belongs 0.948 RPM ratio (pull-down/input); to “GATGATTGTTCTCCCAGCTGATGAATTACGGTACTCGAGTAAACAAATTTTCCTAATCTTTCTGTTCAAGCGCCATCTAC”, 0.94 RPM ratio (pull-down/input).

Values taken from article PMC12820563, “FoxP3 forms a head-to-head dimer in vivo and stabilizes its multimerization on adjacent microsatellites”.
